# Assay results reported in PubChem BioAssay (NCATS).
# Several values for one entry are separate records, joined by “and”; a condition that tells them apart may be missing. Equal values may be shown once. This list was built around the results that the source calls inconclusive (neither active nor inactive); the mix of calls is not that of the screen. For some assays here: Potencies of inconclusive entries are doubtful fits and often do not repeat. Activity calls are given as the source filed them. Unless noted, the call rests on the fitted dose curve; in most records, active means well fitted curve in the direction sought with a large enough effect; inconclusive means small, poorly fitted or top-dose-only effect, or another doubt; inactive means no such curve, though single readings can be large; an effect the other way counts as inactive or inconclusive.
# What was measured:
# [1] = AP1 Signaling Pathway (AID 357; active means well fitted curve in either direction with a large enough effect, not every such curve was filed as active; inconclusive means small, poorly fitted or top-dose-only effect, or another doubt;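 further: ME-180 reporter cells stimulated with EGF at its EC50 level; top concentration of the series differs between compounds; on the % scale 0 is the no-effect control and ±100 the full control effect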); conditions: ME-180 AP-1-bla reporter, EGF-induced, beta-lactamase ratio, 5 h; at 17.2 µM (top of the series) unless noted
# How it was run: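 Beta-lactamase reporter under AP-1 response element, ME-180 background. Stimulus: EC50 EGF. Compound exposure 5 h, 37 °C. Detection: CCF4, 2.5 h RT, 460/530 nm. Values: AC50 from titration.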
# [2] = NFAT Signaling Pathway (AID 444; active means well fitted curve in either direction with a large enough effect, not every such curve was filed as active; inconclusive means small, poorly fitted or top-dose-only effect, or another doubt;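 further: carbachol stimulus at about its EC50 of 1 µM final; on the % scale 0 is the no-effect control and ±100 the full control effect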); conditions: Jurkat NFAT-bla M1, carbachol, beta-lactamase ratio, 5 h; at 7.69 µM (top of the series) unless noted
# How it was run: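 Read-out: CCF4 FRET ratio (460 nm/530 nm) after 1 h RT dye loading, used for %activity and AC50 from titration series. Cells: Jurkat NFAT-β-lactamase/M1 line, treated with compound plus 1 uM carbachol for 5 h, 37 °C.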
# [3] = qHTS Assay for Lipid Storage Modulators (AID 1519; calls by dose curve; further: on the % scale 0 is the no-effect control and ±100 the full control effect); conditions: Drosophila S3 cells, BODIPY lipid droplet/cell ratio, laser cytometry, cells loaded with oleic acid; activity change, negative = inhibition: at 57.5 µM (top of the series) unless noted
# How it was run: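 Cells seeded at 5,000 per well were treated with compounds over a concentration series and loaded with oleic acid (400 uM, as added). Lipid droplet fluorescence (488 nm excitation, 500-530 nm channel) was read by laser-scanning cytometry and normalized to 20 uM Triacsin C.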
# [4] = qHTS Assay for Identification of Small Molecule Agonists for Hypoxia Response Element Signaling Pathway (AID 914; active means well fitted activation curve with a large enough effect in the signal ratio, with a control signal flat, not every such curve was filed as active; inconclusive means small, poorly fitted or top-dose-only effect, or effect the other way, or a change in a side signal; the % refers to the signal ratio; further: top concentration of the series differs between compounds; % of control where 0% means no effect); conditions: ME-180 (cervical carcinoma) HRE-bla reporter, beta-lactamase ratio, CoCl2, 17 h; activation: hits give high values
# How it was run: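 Reporter activity (beta-lactamase, CCF4 460nm/530nm ratio) in HRE-bla ME-180 cells is recorded after 17 h compound exposure with EC50 CoCl2 at 37 degrees Celsius. AC50 values come from titration data.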
# [5] = biological target: Cytochrome P450 1A2 (Homo sapiens) (UniProt P05177); experiment: p450-cyp1a2 (AID 410; calls by dose curve;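 further: top concentration of the series differs between compounds; -100% = full effect of reference inhibitor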)
# Chain of UniProt P05177 (P05177 whole entry, looked up): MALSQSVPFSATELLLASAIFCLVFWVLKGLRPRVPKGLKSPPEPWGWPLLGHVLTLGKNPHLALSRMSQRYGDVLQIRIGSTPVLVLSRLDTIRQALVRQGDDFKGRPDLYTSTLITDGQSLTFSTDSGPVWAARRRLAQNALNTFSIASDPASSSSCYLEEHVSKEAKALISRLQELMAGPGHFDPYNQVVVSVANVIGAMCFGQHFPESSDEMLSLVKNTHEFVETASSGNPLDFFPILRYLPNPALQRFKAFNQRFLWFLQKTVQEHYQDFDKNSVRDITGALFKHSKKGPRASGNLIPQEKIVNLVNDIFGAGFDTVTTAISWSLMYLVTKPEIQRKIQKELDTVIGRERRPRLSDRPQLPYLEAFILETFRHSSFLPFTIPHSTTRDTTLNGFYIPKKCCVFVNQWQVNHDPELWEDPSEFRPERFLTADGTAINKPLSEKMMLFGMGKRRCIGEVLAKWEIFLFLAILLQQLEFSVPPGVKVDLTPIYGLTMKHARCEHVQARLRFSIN
# How it was run: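 Inhibition was calculated relative to 57 uM furafylline (full inhibition). The reaction used human CYP1A2 at 20nM with Luciferin-ME at its Km, 100uM, driven by an NADPH-regenerating system for 60 min at room temperature.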
# [6] = biological target: Cytochrome P450 3A4 (Homo sapiens) (UniProt P08684); experiment: qHTS Assay for Activators of Cytochrome P450 3A4 (AID 885); conditions: recombinant CYP3A4, Luciferin-PPXE luminescence, 60 min; activity change, positive = activation: at 57.1 µM (top of the series); further: potency means the concentration at half of the fitted maximal effect; nearly all actives have a fitted effect of over 65% in size
# Chain of UniProt P08684 (P08684 whole entry, looked up): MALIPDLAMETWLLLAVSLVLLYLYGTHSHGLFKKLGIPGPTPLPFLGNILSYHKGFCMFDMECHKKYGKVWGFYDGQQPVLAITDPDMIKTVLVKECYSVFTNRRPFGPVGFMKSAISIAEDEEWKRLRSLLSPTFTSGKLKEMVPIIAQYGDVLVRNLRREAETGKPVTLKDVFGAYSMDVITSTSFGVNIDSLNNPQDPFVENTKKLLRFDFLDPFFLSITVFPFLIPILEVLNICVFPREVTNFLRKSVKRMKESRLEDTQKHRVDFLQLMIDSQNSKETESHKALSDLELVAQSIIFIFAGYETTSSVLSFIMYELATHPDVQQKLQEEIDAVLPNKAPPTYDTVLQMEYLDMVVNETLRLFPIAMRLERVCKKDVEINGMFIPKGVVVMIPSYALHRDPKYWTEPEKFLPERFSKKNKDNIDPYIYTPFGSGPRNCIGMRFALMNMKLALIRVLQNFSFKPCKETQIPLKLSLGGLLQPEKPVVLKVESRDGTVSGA
# How it was run: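 Quantitative HTS format: compounds preincubated with 20nM human CYP3A4 and Luciferin-PPXE substrate at KM, reaction started by NADPH regeneration, stopped after 60 min, luciferase luminescence read 20 min later.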
# [7] = biological target: Cytochrome P450 2D6 (Homo sapiens) (UniProt P10635); experiment: qHTS Assay for Inhibitors and Substrates of Cytochrome P450 2D6 (AID 891);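 further: luciferin methyl ether substrate demethylated by CYP2D6 with NADPH regeneration; potency means the concentration at half of the fitted maximal effect; nearly all actives have a fitted effect of over 60% in size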
# Chain of UniProt P10635 (P10635 whole entry, looked up): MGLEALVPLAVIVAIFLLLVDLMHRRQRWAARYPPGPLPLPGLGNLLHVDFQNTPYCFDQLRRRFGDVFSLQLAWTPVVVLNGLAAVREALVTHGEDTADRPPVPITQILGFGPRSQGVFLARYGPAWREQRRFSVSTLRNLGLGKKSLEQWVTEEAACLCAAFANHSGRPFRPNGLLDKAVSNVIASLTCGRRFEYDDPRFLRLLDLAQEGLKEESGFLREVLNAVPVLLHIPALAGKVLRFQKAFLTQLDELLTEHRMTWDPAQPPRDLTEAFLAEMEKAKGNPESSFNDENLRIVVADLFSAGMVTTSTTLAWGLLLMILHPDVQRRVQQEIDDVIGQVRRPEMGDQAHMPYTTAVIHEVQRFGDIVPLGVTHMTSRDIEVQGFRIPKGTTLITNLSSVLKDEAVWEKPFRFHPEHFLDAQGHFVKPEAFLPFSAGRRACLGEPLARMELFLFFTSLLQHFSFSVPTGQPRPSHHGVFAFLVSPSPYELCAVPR
# How it was run: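 Human CYP2D6 (5 nM) with 30 uM Luciferin-ME EGE (at Km) in 100 mM KPO4, compound preincubated 10 min, then NADPH regeneration system for 60 min at room temperature. Luciferin read by luminescence; normalized to 1.43 uM quinidine.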
# [8] = biological target: Glucocorticoid receptor (Homo sapiens) (UniProt P04150); experiment: GR-GFP Redistribution (AID 450;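 active means compounds whose dose series gives a full or clear partial fitted curve of increased nuclear translocation; inconclusive means weak partial curve or effect only at the top dose; inactive means no dose-dependent translocation response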; further: potency means the concentration at half of the fitted maximal effect); conditions: U2OS GR-GFP nuclear translocation, laser cytometry, 2 h
# Chain of UniProt P04150 (P04150 whole entry, looked up): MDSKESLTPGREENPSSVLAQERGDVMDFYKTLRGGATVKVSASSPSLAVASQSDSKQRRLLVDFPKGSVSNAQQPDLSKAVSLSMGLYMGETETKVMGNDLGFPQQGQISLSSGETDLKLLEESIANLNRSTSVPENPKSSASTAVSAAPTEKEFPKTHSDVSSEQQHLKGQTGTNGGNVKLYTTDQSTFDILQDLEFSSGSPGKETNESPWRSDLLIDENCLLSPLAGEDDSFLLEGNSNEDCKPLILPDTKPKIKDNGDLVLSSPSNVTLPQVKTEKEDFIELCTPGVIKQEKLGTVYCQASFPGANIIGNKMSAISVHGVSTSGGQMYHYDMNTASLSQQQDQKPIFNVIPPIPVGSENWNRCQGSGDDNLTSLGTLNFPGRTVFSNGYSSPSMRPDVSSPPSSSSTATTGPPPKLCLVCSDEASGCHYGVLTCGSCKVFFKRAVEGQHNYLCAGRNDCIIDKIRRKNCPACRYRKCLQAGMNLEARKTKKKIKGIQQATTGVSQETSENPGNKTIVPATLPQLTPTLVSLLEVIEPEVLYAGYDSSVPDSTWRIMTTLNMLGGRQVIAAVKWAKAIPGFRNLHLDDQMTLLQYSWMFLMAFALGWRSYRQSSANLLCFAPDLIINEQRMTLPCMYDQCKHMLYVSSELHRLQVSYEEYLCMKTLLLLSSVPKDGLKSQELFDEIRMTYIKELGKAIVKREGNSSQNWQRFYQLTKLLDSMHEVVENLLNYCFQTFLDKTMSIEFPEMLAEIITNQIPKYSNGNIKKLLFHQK
# [9] = biological target: Ubiquitin carboxyl-terminal hydrolase 1 (Homo sapiens) (UniProt O94782); experiment: Inhibitors of USP1/UAF1: Pilot qHTS (AID 504865);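 further: rhodamine fluorescence freed from ubiquitin-rhodamine substrate followed over time; potency means the concentration at half of the fitted maximal effect; nearly all actives have a fitted effect of over 35% in size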
# How it was run: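 Kinetic fluorescence assay: 1nM USP1/UAF1, 15 min compound preincubation, then 150nM Ub-Rho; 480/540 nm.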
# [10] = qHTS Assay for Identification of Small Molecule Antagonists for Thrombopoietin (TPO) Signaling Pathway (AID 918); conditions: TPO-dependent cell signaling reporter, antagonist mode; activity change, negative = inhibition: at 38.5 µM (top of the series); further: nearly all actives have a fitted effect of over 60% in size
# How it was run: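 First, Ba/F3 reporter cells expressing human TPO receptor were held overnight without IL-3. Next, compound and 26 pM TPO were added. After 24 hrs incubation at 37 C, luciferase luminescence under the Glycoprotein IIb promoter was recorded.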
# [11] = biological target: Muscarinic acetylcholine receptor M1 (Rattus norvegicus) (UniProt P08482); experiment: qHTS Assay for Antagonists of Acetylcholine Muscarinic M1 Receptor: Kinetic Measurement of Intracellular Calcium Response (AID 943); further: potency means the concentration at half of the fitted maximal effect; nearly all actives have a fitted effect of over 75% in size
# Chain of UniProt P08482 (P08482 whole entry, looked up): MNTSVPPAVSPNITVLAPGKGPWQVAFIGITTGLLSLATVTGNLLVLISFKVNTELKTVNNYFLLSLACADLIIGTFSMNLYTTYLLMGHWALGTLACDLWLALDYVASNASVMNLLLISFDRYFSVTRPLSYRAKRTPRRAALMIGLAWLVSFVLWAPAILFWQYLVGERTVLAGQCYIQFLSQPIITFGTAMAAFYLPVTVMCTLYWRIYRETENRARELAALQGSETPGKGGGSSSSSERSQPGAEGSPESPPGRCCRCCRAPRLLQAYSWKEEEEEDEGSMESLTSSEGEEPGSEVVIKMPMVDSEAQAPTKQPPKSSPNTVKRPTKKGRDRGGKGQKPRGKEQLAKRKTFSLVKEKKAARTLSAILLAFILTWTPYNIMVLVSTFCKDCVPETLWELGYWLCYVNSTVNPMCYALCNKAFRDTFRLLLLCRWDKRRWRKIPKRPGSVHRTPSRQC
# How it was run: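 Intracellular calcium flux, recorded with Fluo-4 in a kinetic plate reader, served as signal; the response to carbachol at EC80 (100 nM final) was taken as maximal over minimal fluorescence after a 10 min compound pre-incubation in rat M1-CHO cells.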
# [12] = biological target: Muscarinic acetylcholine receptor M1 (Rattus norvegicus) (UniProt P08482); experiment: qHTS Assay for Antagonists of Acetylcholine Muscarinic M1 Receptor: Measurement of IP-One Response (AID 944); further: potency means the concentration at half of the fitted maximal effect; nearly all actives have a fitted effect of over 75% in size
# [13] = qHTS for differential inhibitors of proliferation of Plasmodium falciparum line GB4 (AID 1816); conditions: Potency: Plasmodium falciparum GB4 proliferation inhibition;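 further: potency means the concentration at half of the fitted maximal effect; parasite growth measured after 72 h incubation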
# [14] = qHTS for differential inhibitors of proliferation of Plasmodium falciparum line Dd2 (AID 1882); conditions: Potency: Plasmodium falciparum Dd2 proliferation inhibition; further: potency means the concentration at half of the fitted maximal effect; nearly all actives have a fitted effect of over 65% in size
# How it was run: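 SYBR Green I DNA fluorescence read-out, ex 485/em 535 nm. Signals were normalized to 0.29 uM artemisinin and DMSO wells, then corrected using vehicle-only plates flanking each stack. Parasite growth ran 72 h in erythrocytes before lysis.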
# [15] = qHTS for differential inhibitors of proliferation of Plasmodium falciparum line W2 (AID 1883); conditions: Potency: Plasmodium falciparum W2 proliferation inhibition;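 further: potency means the concentration at half of the fitted maximal effect; parasites grown with compound for 72 h before lysis and staining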
# [16] = biological target: Ferritin light chain (Equus caballus) (UniProt P02791); experiment: qHTS Validation Assay for Identification of Novel General Anesthetics (AID 2323); further: on the % scale 0 is the no-effect control and ±100 the full control effect
# Chain of UniProt P02791 (P02791 2-175 limits assumed): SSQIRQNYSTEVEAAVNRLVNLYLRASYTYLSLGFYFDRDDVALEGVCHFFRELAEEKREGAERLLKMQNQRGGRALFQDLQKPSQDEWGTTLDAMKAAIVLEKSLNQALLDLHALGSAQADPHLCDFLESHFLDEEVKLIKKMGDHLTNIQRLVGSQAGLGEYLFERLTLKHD
# How it was run: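 Apoferritin from horse spleen (10 uM) was mixed with 1-aminoanthracene at 50% saturation in PBS, then compounds were added. After 10 min at room temperature, fluorescence was read (ex 380 nm, em 535 nm) and normalized to free-probe and complex controls.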
# [17] = Quantitative high throughput screen for delayed death inhibitors of the malarial parasite plastid, 96 hour incubation (AID 488745); further: potency means the concentration at half of the fitted maximal effect; nearly all actives have a fitted effect of over 70% in size
# How it was run: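 Growth of reporter-bearing P. falciparum in red cells is measured after 96 h with compound, covering two erythrocytic cycles. Luminescence from the integrated luciferase serves as the growth signal.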
# [18] = Quantitative high throughput screen for delayed death inhibitors of the malarial parasite plastid, 48 hour incubation (AID 488752); further: potency means the concentration at half of the fitted maximal effect; nearly all actives have a fitted effect of over 65% in size
# How it was run: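 One parasite generation (48 h, 37 C, 5% CO2) of luciferase-reporter P. falciparum in erythrocytes is run with test compound; decreased luminescence indicates inhibited growth.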
# [19] = qHTS for differential inhibitors of proliferation of Plasmodium falciparum line D10 (AID 1877);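 further: parasites grown with compound for 72 h before DNA staining; plate controls were vehicle wells for no effect and reference inhibitor wells for full effect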
# [20] = biological target: RecQ-like DNA helicase BLM (Homo sapiens) (UniProt P54132); experiment: qHTS Validation Assay for Inhibitors of Bloom's syndrome helicase (BLM) (AID 2364); further: potency means the concentration at half of the fitted maximal effect
# Chain of UniProt P54132 (P54132 whole entry, looked up): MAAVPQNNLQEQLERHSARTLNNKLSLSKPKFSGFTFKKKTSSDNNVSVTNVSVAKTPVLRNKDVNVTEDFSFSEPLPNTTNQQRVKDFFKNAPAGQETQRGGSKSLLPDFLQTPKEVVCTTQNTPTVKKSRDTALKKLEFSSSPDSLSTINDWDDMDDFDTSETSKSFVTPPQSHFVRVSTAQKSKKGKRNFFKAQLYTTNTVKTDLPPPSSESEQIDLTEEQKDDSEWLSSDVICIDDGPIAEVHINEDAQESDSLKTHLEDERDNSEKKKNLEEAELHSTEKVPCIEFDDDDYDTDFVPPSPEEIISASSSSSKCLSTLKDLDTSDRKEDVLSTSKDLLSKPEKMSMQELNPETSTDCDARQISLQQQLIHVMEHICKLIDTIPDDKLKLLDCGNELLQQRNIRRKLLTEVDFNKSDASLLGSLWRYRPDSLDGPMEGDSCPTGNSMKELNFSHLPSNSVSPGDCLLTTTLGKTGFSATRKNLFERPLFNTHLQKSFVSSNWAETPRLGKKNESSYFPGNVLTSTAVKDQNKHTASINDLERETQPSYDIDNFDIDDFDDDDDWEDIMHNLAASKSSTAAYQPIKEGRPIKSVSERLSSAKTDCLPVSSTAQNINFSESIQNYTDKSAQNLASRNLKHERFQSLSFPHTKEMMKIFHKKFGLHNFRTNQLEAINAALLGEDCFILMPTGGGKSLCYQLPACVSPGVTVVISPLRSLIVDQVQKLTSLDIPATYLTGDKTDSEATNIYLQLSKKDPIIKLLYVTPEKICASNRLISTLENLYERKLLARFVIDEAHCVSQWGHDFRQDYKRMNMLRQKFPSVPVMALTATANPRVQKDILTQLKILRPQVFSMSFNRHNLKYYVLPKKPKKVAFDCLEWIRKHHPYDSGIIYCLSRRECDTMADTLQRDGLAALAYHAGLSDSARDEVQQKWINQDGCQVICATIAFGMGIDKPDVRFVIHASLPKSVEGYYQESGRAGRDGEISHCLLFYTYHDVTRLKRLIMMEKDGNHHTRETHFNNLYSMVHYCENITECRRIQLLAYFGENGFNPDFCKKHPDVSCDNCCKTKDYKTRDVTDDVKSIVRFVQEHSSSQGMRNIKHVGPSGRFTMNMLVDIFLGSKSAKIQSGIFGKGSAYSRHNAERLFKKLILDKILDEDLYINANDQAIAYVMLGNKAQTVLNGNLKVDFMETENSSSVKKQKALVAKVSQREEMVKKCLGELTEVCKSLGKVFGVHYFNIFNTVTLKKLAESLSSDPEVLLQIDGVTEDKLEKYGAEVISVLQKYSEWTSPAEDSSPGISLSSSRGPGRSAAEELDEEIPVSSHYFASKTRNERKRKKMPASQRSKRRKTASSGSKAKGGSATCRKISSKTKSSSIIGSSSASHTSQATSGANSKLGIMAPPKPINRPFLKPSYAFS
# How it was run: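 Forked 20-bp duplex substrate (200 nM, TAMRA/BHQ-2) plus 2 mM ATP added after 15 min compound preincubation with 50 nM enzyme, pH 8.0, poly(dI-dC) 2.5 ug/ml. Strand separation followed by fluorescence (525/598 nm) over 2 h, normalized to enzyme-free and DMSO controls.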
# Tags describe the fitted curve by direction and shape.
compound,measurement,setting,value
O=C(Oc1ccccc1)N1CCC[C@@]2(CCN(Cc3cc(C(F)(F)F)cc(C(F)(F)F)c3)C2)C1,"activity change, negative = inhibition",[1],inconclusive: 35.2% [activator] [at 7.69 µM]
same,"activity change, negative = inhibition",[2],inconclusive: -57.4% [inhibitor]
same,"activity change, negative = inhibition",[3],inconclusive: 2.85%
CC(=O)N[C@@H]1CCSC1=O,"activity change, negative = inhibition",[1],inactive: 8.91%
same,activation,[4],inconclusive: -5.98%
same,Potency,[3],inactive
O=C(Oc1ccccc1)N1CCC2(CC1)CN(C(c1ccccc1)c1ccccc1)C2,Potency,[5],inactive
same,Potency,[6],active: 6.31 µM
same,Potency,[7],active: 7.94 µM
same,Potency,[3],inactive
CN1C[C@H](CNC(=O)OCc2ccccc2)C[C@H]2c3cccc4c3c(cn4C)C[C@@H]21,"activity change, negative = inhibition",[1],inconclusive: 31.6% [activator]
same,Potency,[8],inconclusive: 38.4 µM [single point] and inconclusive: 43.6 µM [single point]
same,"activity change, negative = inhibition",[3],inconclusive: 10.5%
same,Potency,[9],"inconclusive: 3.55 µM [inhibitor, full curve, poor fit]"
O=C(Oc1ccccc1)N1CCC2(CCCN(Cc3ccccc3)C2)CC1,"activity change, negative = inhibition",[2],inconclusive: -70.7% [inhibitor]
same,Potency,[3],inactive
NNCc1cccc(O)c1,"activity change, negative = inhibition",[10],inconclusive: 15.1% [phenotype inactive]
same,Potency,[11],"inconclusive: 0.0631 µM [inhibitor, partial curve, poor fit]"
same,Potency,[12],"inconclusive: 35.5 µM [inhibitor, partial curve, poor fit]"
same,"activity change, negative = inhibition",[3],inconclusive: 0.907%
same,Potency,[13],"inconclusive: 12.6 µM [inhibitor, single point]"
same,Potency,[14],"inconclusive: 17.8 µM [inhibitor, single point]"
same,Potency,[15],active: 12.6 µM
same,Potency,[16],inactive
same,Potency,[17],"inconclusive: 18.5 µM [inhibitor, single point]"
same,Potency,[18],active: 7.38 µM
CC(C)CN1CCCC2(CCN(C(=O)Oc3ccccc3)CC2)C1,"activity change, negative = inhibition",[2],inconclusive: -69% [inhibitor]
same,"activity change, negative = inhibition",[3],inconclusive: 8.01%
CCNC(=O)[C@H]1O[C@@H](n2cnc3c(N)ncnc32)[C@H](O)[C@H]1O,"activity change, negative = inhibition",[3],inconclusive: 1.09%
same,Potency,[19],inactive
same,Potency,[16],inactive
same,Potency,[20],"inconclusive: 0.0008 µM [inhibitor, full curve, poor fit]"
